Assay results published in IntAct's records for PubMed 16917505.

B1: Somatostatin receptor type 2 (Homo sapiens), P30874 (parent)
chain: MDMADEPLNGSHTWLSIPFDLNGSVVSTNTSNQTEPYYDLTSNAVLTFIYFVVCIIGLCGNTLVIYVILRYAKMKTITNIYILNLAIADELFMLGLPFLAMQVALVHWPFGKAICRVVMTVDGINQFTSIFCLTVMSIDRYLAVVHPIKSAKWRRPRTAKMITMAVWGVSLLVILPIMIYAGLRSNQWGRSSCTINWPGESGAWYTGFIIYTFILGFLVPLTIICLCYLFIIIKVKSSGIRVGSSKRKKSEKKVTRMVSIVVAVFIFCWLPFYIFNVSSVSMAISPTPALKGMFDFVVVLTYANSCANPILYAFLSDNFKKSFQNVLCLVKVSGTDDGERSDSKQDKSRLNETTETQRTLLNGDLQTSI

Variants of: B1
Conditions: with p85a_human PIK3R1, P27986

| Variant | effect of a mutation on the interaction |
| --- | --- |
| MDMADEPLNGSHTWLSIPFDLNGSVVSTNTSNQTEPYYDLTSNAVLTFIYFVVCIIGLCGNTLVIYVILRFAKMKTITNIYILNLAIADELFMLGLPFLAMQVALVHWPFGKAICRVVMTVDGINQFTSIFCLTVMSIDRYLAVVHPIKSAKWRRPRTAKMITMAVWGVSLLVILPIMIYAGLRSNQWGRSSCTINWPGESGAWYTGFIIYTFILGFLVPLTIICLCYLFIIIKVKSSGIRVGSSKRKKSEKKVTRMVSIVVAVFIFCWLPFYIFNVSSVSMAISPTPALKGMFDFVVVLTYANSCANPILYAFLSDNFKKSFQNVLCLVKVSGTDDGERSDSKQDKSRLNETTETQRTLLNGDLQTSI [Y71F] | disrupting interaction |
